The values that follow come from PMC7247158.

By UniProt entry, the sequences of proteins in these tests, tags left out.
UniProt Q13546: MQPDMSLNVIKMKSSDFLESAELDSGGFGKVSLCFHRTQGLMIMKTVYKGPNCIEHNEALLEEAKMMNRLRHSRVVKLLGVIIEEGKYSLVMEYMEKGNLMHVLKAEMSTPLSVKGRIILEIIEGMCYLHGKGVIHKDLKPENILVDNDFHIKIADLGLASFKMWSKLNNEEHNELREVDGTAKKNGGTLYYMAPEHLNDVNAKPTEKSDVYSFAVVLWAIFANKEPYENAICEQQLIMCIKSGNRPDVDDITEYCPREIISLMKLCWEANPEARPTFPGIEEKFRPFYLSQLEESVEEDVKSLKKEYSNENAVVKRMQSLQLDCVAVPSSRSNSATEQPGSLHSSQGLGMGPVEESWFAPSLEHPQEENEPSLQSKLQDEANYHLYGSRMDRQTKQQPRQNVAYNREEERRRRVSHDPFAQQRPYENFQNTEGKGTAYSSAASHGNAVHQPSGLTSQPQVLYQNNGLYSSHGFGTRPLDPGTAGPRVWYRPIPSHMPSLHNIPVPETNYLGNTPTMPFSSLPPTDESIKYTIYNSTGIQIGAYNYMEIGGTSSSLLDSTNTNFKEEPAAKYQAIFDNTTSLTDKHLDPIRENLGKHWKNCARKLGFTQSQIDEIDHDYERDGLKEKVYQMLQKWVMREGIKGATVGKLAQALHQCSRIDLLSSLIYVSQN

These are yes or no findings as the source states them, for the method shown. In cells and extracts the contact can be indirect. Some results given as binding are weak or reduced against the parent protein; the word gives no strength.

The target of assay [1] is Flag-p62 (p62/sequestosome-1) (human) (UniProt Q13501). Nature of the assay: co-IP; HA-USP20 and Flag-p62 co-transfected into HeLa cells; lysates (1% Triton X-100, 50 mM Tris-HCl pH 7.5, 150 mM NaCl, 10% glycerol) immunoprecipitated with anti-Flag antibody and G agarose beads at 4 °C for 15 h, immunoblotted with anti-HA. For orientation: Immunoblotting shows a protein as a band on a membrane.

In assay [2] the target is T1, endogenous PKCζ (atypical protein kinase C zeta) (human (endogenous in HeLa)) (UniProt Q05513).
T1 sequence: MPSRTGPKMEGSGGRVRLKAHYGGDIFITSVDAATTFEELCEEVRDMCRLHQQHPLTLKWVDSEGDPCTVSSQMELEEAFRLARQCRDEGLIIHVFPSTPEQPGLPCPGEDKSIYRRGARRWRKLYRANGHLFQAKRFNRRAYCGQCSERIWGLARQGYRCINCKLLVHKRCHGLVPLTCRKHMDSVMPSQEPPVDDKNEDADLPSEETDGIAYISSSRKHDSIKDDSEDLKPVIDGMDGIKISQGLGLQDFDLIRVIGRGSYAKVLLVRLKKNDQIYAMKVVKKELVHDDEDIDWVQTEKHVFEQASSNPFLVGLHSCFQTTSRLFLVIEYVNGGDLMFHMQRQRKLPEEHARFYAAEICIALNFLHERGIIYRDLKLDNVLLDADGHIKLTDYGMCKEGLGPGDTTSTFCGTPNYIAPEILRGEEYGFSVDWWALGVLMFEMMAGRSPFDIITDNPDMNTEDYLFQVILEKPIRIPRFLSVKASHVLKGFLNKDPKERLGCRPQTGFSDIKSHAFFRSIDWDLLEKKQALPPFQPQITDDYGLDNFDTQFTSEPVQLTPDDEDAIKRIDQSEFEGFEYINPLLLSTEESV
The assay can be described thus: co-IP; endogenous proteins, control (siCON) HeLa cells treated with 10 ng/mL TNFα for the indicated times; immunoprecipitated with anti-PKCζ antibody, immunoblotted with the indicated antibodies; anti-IgG as negative control.

The target in assay [3] is T1, endogenous PKCζ (atypical protein kinase C zeta) (human (endogenous in HeLa)). Nature of the assay: condition: only USP20-depleted HeLa cells (siUSP20); co-IP; endogenous proteins, USP20-depleted (siUSP20) HeLa cells treated with 10 ng/mL TNFα for the indicated times; immunoprecipitated with anti-PKCζ antibody, immunoblotted with the indicated antibodies.
Assay [4] addresses endogenous p62 (human (endogenous in HeLa)) (UniProt Q13501). Nature of the assay: condition: only later than 5 min after TNFα treatment; co-IP; endogenous proteins, HeLa cells treated with 10 ng/mL TNFα, times later than 5 min; immunoprecipitated with anti-p62 antibody, immunoblotted for USP20.
Assay [5] has the same target. The assay can be described thus: co-IP; endogenous proteins, HeLa cells treated with 10 ng/mL TNFα, 5 min; immunoprecipitated with anti-p62 antibody, immunoblotted for USP20; anti-IgG as negative control.

Turning to “HA-USP20 (ubiquitin-specific protease 20, wild type) (from UniProt Q9Y2K6 1-914) (enzyme)”, the binding result in assay [1] was “binds”.
With “endogenous RIPK1 (receptor interacting protein kinase-1) (from UniProt Q13546 1-671) (enzyme)”, the binding entry in assay [2] was “binds”; in assay [3], “no binding”.
Regarding “endogenous USP20 (from UniProt Q9Y2K6 1-914) (enzyme)”, the binding entry in assay [4] is listed as “no binding”; in assay [5], “binds”.
